In the RNAGym collection of RNA variant scans (doi:10.7554/elife.90254):
The source gives no read counts; variants with many changes may rest on few reads.

B1: LINE1-full (parent)
chain: UACGUAGGUGGUUUUCCCCUGAUAGUGCUAAGGGGGCCUGGAAGUUUGGACUGGGCAGAGCUCAACACAGCGUGGCAAAGUGGCUGUGGCUAGACUGCCUCUCUGGAUUCCUCGUCACUCAGCAGGGCAUCUCUGAGAGAAAUGCC

Variants of: B1
Assay: self-cleavage, relative activity (ratio to wild type); higher = more cleavage; in vitro, sequencing; the parent is a self-cleaving ribozyme

| Variant | self-cleavage |
| --- | --- |
| A77U U96G A138G | 0.08 |
| A77U U100A U130A | 0.87 |
| A77U U104A U130C | 1.47 |
| A77U U109C U134G | 0.32 |
| A77U U112C A124G | 0.67 |
| A77U U112C C123U | 1.15 |
| A78C A107G A121U | 2.76 |
| A78C U87A A94G U100C | 0 |
| A78C U102A U115C | 1.95 |
| A78G A79G A117G A142G | 0 |
| A78G A79G A129U | 0.63 |
| A78G A92G A94G | 0 |
| A78G A92G A121U | 0 |
| A78G A121G G135A | 2.32 |
| A78G A124G U134A | 0.37 |
| A78G A124U A129G | 1.32 |
| A78G A129C G139A | 1.87 |
| A78G A129U A138G | 1.3 |
| A78G A138G A141G | 1.55 |
| A78G A138G C145U C146U | 2.22 |
| A78G A141U A142G | 1.69 |

| Variant | self-cleavage |
| --- | --- |
| A78G C84G A107U U115A | 0.16 |
| A78G C113U U130C | 1.42 |
| A78G C113U U134C | 1.18 |
| A78G G88A A117U | 0.06 |
| A78G G122U A124G C146U | 0.81 |
| A78G G125U A138U | 0.95 |
| A78G U81A C113A U119G | 0.13 |
| A78G U81C C110U G127A | 1.69 |
| A78G U81C U96C | 0.13 |
| A78G U85A A140G | 0.06 |
| A78G U85A U132C | 0.05 |
| A78G U85C A140U | 0.22 |
| A78G U85C U100C | 0.61 |
| A78G U85C U100C U134A | 0 |
| A78G U85C U109C U119A | 0 |
| A78G U87A U108C | 0.09 |
| A78G U91C U104C A124U A138G | 0 |
| A78G U102C A121G | 1.48 |
| A78G U102C A121G A141G | 0.57 |
| A78G U102C U104C C113A U143C | 2.18 |
| A78G U109A U134C | 0.95 |

| Variant | self-cleavage |
| --- | --- |
| A78G U109G C113U G114A U119C | 0.23 |
| A78G U112C G125A | 1.55 |
| A78G U115C U132C | 0.92 |
| A78G U132A U134G | 2.63 |
| A78G U132C A140G | 0.82 |
| A78U A94U A107G A129G | 0.37 |
| A78U A117G A129U | 2.5 |
| A78U U85C A136U A141G | 0.13 |
| A78U U87C A92G | 0.16 |
| A78U U87C A121U | 0.35 |
| A78U U87C U96C U130C | 0 |
| A78U U91C A94U A107G | 0.11 |
| A78U U96A U102C C128A | 0.05 |
| A79G A92G C113U | 0.03 |
| A79G A92U A140G | 0.41 |
| A79G A94U A136U | 0.37 |
| A79G A117G A138G | 1.2 |
| A79G A121U A140G | 0.33 |
| A79G C84U U115C | 0.15 |
| A79G G80U A121U | 0.76 |
| A79G G86A A117G U130C | 0 |

| Variant | self-cleavage |
| --- | --- |
| A79G G89A A107G G126U | 0.02 |
| A79G G93A A94G U119C | 0 |
| A79G U81A A94G U100C G114A A138G | 0 |
| A79G U81A A117G | 2.21 |
| A79G U81A A124U | 2.13 |
| A79G U81A U87C U96A | 0.11 |
| A79G U85A U130C | 0.17 |
| A79G U85C A124G U130C A142G | 0 |
| A79G U85G U96A A138G | 0.26 |
| A79G U87A A124U | 0.15 |
| A79G U87C A94G | 0 |
| A79G U87C A138G | 0.3 |
| A79G U91A A92U A94G | 0 |
| A79G U91A U132C | 0.19 |
| A79G U91C C101U A141U | 0.68 |
| A79G U91C U108C | 0.38 |
| A79G U96A U104G | 0.48 |
| A79G U96C U132C | 0 |
| A79G U100A U104C | 1.06 |
| A79G U100C A117G | 0 |
| A79G U100C U132C U143C | 1.84 |
